# Assay results reported in the supplement of paper PMC9135407.
# Values joined by “and” are separate entries in the source; they are usually repeats but may differ in a detail not shown here. Equal values may be shown once. Where a name gives a salt, the structure may show the parent alone. Among all 5,800 compounds or so, about 620 (11%) showed activity.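 The calls were made as follows: active = score above a cut-off or among the top three wells of a plate; in these data no inactive exceeds 0.85.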 The list shows a part of the results, in another mix than the full data.
# Tested on: primary human hepatic stellate cells (donor 1)
# Experiment: scaled lipid accumulation score (0 = DMSO-like, 1 = nortriptyline-like); higher = stronger HSC inactivation (lipid re-accumulation), active = hit call of the paper
# Conditions: 48 h
# [1] = library stock concentration: 10 mM
# [2] = library stock concentration: 3.33 mM
# [3] = library stock concentration: 1 mM
# [4] = library stock concentration: 80 uM
# [5] = library stock concentration: 400 uM
# [6] = library stock concentration: 2 mM
smiles,measurement,setting,value
"Cc1cn(C2C=CC(CO)O2)c(=O)[nH]c1=O (stereo not drawn) [2',3'-didehydro-3'-deoxythymidine]",scaled lipid accumulation score,[1],inactive: ≤ -0.07
CC#CCOC(=O)c1c(C)nc2sc3c(c2c1N)CCC(O)C3 (stereo not drawn),scaled lipid accumulation score,[1],active: 0.882
CCOC(=O)[C@H](CCc1ccccc1)N[C@@H](C)C(=O)N1Cc2ccccc2C[C@H]1C(=O)O [Quinapril HCl],scaled lipid accumulation score,,inactive: ≤ 0
same,scaled lipid accumulation score,[2],inactive: 0.001
same,scaled lipid accumulation score,[1],inactive: 0.013
CCOC(=O)[C@H](CCc1ccccc1)N[C@@H](C)C(=O)N1Cc2ccccc2C[C@H]1C(=O)O,scaled lipid accumulation score,[1],inactive: ≤ 0
CCOC(=O)[C@H](CCc1ccccc1)N[C@@H](C)C(=O)N1Cc2ccccc2C[C@H]1C(=O)O [Quinapril hydrochloride],scaled lipid accumulation score,[1],inactive: ≤ -0.027
CCCCCC(O)C=CC1C(O)CC(=O)C1CC=CCCCC(=O)O (stereo not drawn) [8-iso Prostaglandin E2],scaled lipid accumulation score,[3],inactive: ≤ 0
CC(CCc1ccccc1)NCC(O)c1ccc(O)c(C(N)=O)c1 (stereo not drawn) [Labetalol HCl],scaled lipid accumulation score,[2],inactive: ≤ 0
same,scaled lipid accumulation score,[1],inactive: 0.464
CC(CCc1ccccc1)NCC(O)c1ccc(O)c(C(N)=O)c1 (stereo not drawn) [Labetalol hydrochloride],scaled lipid accumulation score,,inactive: 0.321
same,scaled lipid accumulation score,[1],inactive: 0.546 and inactive: 0.164
CC(CCc1ccccc1)NCC(O)c1ccc(O)c(C(N)=O)c1 (stereo not drawn),scaled lipid accumulation score,[1],inactive: 0.089
CCCCc1ccc(N=CNO)c(C)c1,scaled lipid accumulation score,[3],inactive: 0.03
CC(C)c1ccc2oc3nc(N)c(C(=O)O)cc3c(=O)c2c1,scaled lipid accumulation score,[1],inactive: ≤ 0
NC(=O)c1cc[n+](CC2=C(C(=O)O)N3C(=O)[C@@H](NC(=O)[C@@H](c4ccccc4)S(=O)(=O)[O-])[C@H]3SC2)cc1 [Cefsulodin sodium],scaled lipid accumulation score,library stock concentration: 3.6 mM,inactive: ≤ 0
CC1(C)S[C@@H]2[C@H](NC(=O)[C@H](NC(=O)N3CCNC3=O)c3ccccc3)C(=O)N2[C@H]1C(=O)O [Azlocillin sodium],scaled lipid accumulation score,[1],inactive: ≤ -0.027
CC1(C)S[C@@H]2[C@H](NC(=O)[C@H](NC(=O)N3CCNC3=O)c3ccccc3)C(=O)N2[C@H]1C(=O)O [Azlocillin sodium salt],scaled lipid accumulation score,,inactive: ≤ 0
same,scaled lipid accumulation score,[2],inactive: ≤ 0
same,scaled lipid accumulation score,[1],inactive: ≤ -0.001
CCCCCCc1ccc(O)cc1O.Nc1c2ccccc2nc2ccccc12 [Acrisorcin],scaled lipid accumulation score,library stock concentration: 5.1 mM,inactive: 0.478
same,scaled lipid accumulation score,[1],inactive: 0.591
c1ccc(C(OC2CCN(CCCc3nn[nH]n3)CC2)c2ccccc2)cc1,scaled lipid accumulation score,[3],inactive: ≤ 0
O=C1[C@H](Cc2ccc(O)cc2)N2C(=O)CCN(C(=O)NCc3ccccc3)[C@H]2CN1Cc1cccc2ccccc12,scaled lipid accumulation score,[2],inactive: ≤ 0
same,scaled lipid accumulation score,[1],inactive: 0.29
"CCCCCC(=O)CC[C@@H]1[C@@H](CCCCCCC(=O)O)[C@@H](O)C[C@H]1O [13,14-dihydro-15-keto Prostaglandin F1.alpha.]",scaled lipid accumulation score,[3],inactive: ≤ 0
Cc1cc2c(cc1S(N)(=O)=O)S(=O)(=O)CCC2 [Meticrane],scaled lipid accumulation score,,inactive: 0.086
CC(=O)c1ncc([C@@H](O)[C@H](O)[C@H](O)CO)[nH]1 [2-Acetyl-5-tetrahydroxybutyl Imidazole],scaled lipid accumulation score,[3],inactive: ≤ 0
CC(O)C(=O)O.CC(O)C(=O)O.CN1CCN(c2ccc3nc(-c4c(N)c5c(F)cccc5[nH]c4=O)[nH]c3c2)CC1 [Dovitinib (TKI-258) Dilactic Acid],scaled lipid accumulation score,[2],active: 1.27
Nc1nc2c(ncn2[C@@H]2O[C@H](CO)[C@@H](O)[C@H]2O)c(=O)[nH]1 [Guanosine],scaled lipid accumulation score,[2],inactive: 0.023
same,scaled lipid accumulation score,[1],inactive: 0.11
Clc1cnccn1 [2-Chloropyrazine],scaled lipid accumulation score,,inactive: ≤ 0
"CC(C)OC(=O)[C@H](C)N[P@](=O)(OC[C@H]1O[C@@H](n2ccc(=O)[nH]c2=O)[C@](C)(F)[C@@H]1O)Oc1ccccc1 [Sofosbuvir (PSI-7977, GS-7977)]",scaled lipid accumulation score,[2],inactive: ≤ 0
same,scaled lipid accumulation score,[1],inactive: ≤ 0
O=C(O)/C=C/CCCCCCCCC(=O)O [Traumatic Acid],scaled lipid accumulation score,[3],inactive: ≤ 0
COc1cccc2c1C(=O)c1c(O)c3c(c(O)c1C2=O)C[C@@](O)(C(=O)CO)C[C@@H]3O[C@H]1C[C@H](N)[C@H](O)[C@H](C)O1,scaled lipid accumulation score,[1],inactive: ≤ 0
COc1cccc2c1C(=O)c1c(O)c3c(c(O)c1C2=O)C[C@@](O)(C(=O)CO)C[C@@H]3O[C@H]1C[C@H](N)[C@H](O)[C@H](C)O1 [Doxorubicin (Adriamycin)],scaled lipid accumulation score,[2],inactive: 0.229
same,scaled lipid accumulation score,[1],inactive: ≤ 0
COc1cccc2c1C(=O)c1c(O)c3c(c(O)c1C2=O)C[C@@](O)(C(=O)CO)C[C@@H]3O[C@H]1C[C@H](N)[C@H](O)[C@H](C)O1 [Doxorubicin hydrochloride],scaled lipid accumulation score,,inactive: ≤ 0
same,scaled lipid accumulation score,[1],inactive: ≤ -0.001
COc1cccc2c1C(=O)c1c(O)c3c(c(O)c1C2=O)C[C@@](O)(C(=O)CO)C[C@@H]3O[C@H]1C[C@H](N)[C@H](O)[C@H](C)O1 [Doxorubicin],scaled lipid accumulation score,library stock concentration: 8.6 mM,inactive: 0.214
CC(C)N1Cc2cc(S(C)(=O)=O)ccc2N(CCN2CC=C(c3c[nH]c4cc(F)ccc34)CC2)S1(=O)=O,scaled lipid accumulation score,[1],inactive: 0.137
CCC(=O)O[C@@H](O[P@](=O)(CCCCc1ccccc1)CC(=O)N1C[C@H](C2CCCCC2)C[C@H]1C(=O)O)C(C)C [Fosinopril],scaled lipid accumulation score,library stock concentration: 3.5 mM,inactive: ≤ -0.006
CCCCC/C=C\C/C=C\CC/C=C\CCCC(=O)OC [Pinolenic Acid methyl ester],scaled lipid accumulation score,[3],inactive: ≤ 0
CC1(C)S[C@@H]2[C@H](NC(=O)[C@H](N)c3ccc(O)cc3)C(=O)N2[C@H]1C(=O)O [Amoxicillin Sodium],scaled lipid accumulation score,[2],inactive: ≤ 0
same,scaled lipid accumulation score,[1],inactive: ≤ 0
CC1(C)S[C@@H]2[C@H](NC(=O)[C@H](N)c3ccc(O)cc3)C(=O)N2[C@H]1C(=O)O,scaled lipid accumulation score,[1],inactive: 0.145
CC1(C)S[C@@H]2[C@H](NC(=O)[C@H](N)c3ccc(O)cc3)C(=O)N2[C@H]1C(=O)O [Amoxicillin],scaled lipid accumulation score,,inactive: 0.056
same,scaled lipid accumulation score,[2],inactive: ≤ 0
same,scaled lipid accumulation score,[1],inactive: 0.044 and inactive: ≤ 0
Cc1cc(C(=O)NOCCO)c(Nc2ccc(I)cc2F)n(C)c1=O,scaled lipid accumulation score,[4],inactive: ≤ -0.009
same,scaled lipid accumulation score,[5],inactive: ≤ -0.009
same,scaled lipid accumulation score,[6],inactive: 0.044
same,scaled lipid accumulation score,[2],inactive: 0.002
same,scaled lipid accumulation score,[1],inactive: ≤ 0 and inactive: ≤ -0.009
Cn1cnc2c(NCc3ccccc3)nc(NCCO)nc21 [Olomoucine],scaled lipid accumulation score,[3],inactive: 0.044
same,scaled lipid accumulation score,[1],inactive: ≤ -0.055 and inactive: 0.016
same,scaled lipid accumulation score,library stock concentration: 16.8 mM,inactive: 0.139
N=C(N)NC(=N)Nc1ccccc1 [1-Phenylbiguanide hydrochloride],scaled lipid accumulation score,[1],inactive: ≤ 0
Oc1cccc(-c2nc(N3CCOCC3)c3sccc3n2)c1 [PI3-Kinase .alpha. Inhibitor 2],scaled lipid accumulation score,[3],inactive: ≤ 0
Nc1nc(Cl)nc2c1ncn2[C@H]1C[C@H](O)[C@@H](CO)O1,scaled lipid accumulation score,[1],inactive: ≤ 0
Nc1nc(Cl)nc2c1ncn2[C@H]1C[C@H](O)[C@@H](CO)O1 [Cladribine],scaled lipid accumulation score,[2],inactive: ≤ 0
same,scaled lipid accumulation score,[1],inactive: ≤ 0
CN[C@@H]1[C@H](O[C@H]2[C@H](O[C@H]3[C@H](O)[C@@H](O)[C@H](N=C(N)N)[C@@H](O)[C@@H]3N=C(N)N)O[C@@H](C)[C@]2(O)C=O)O[C@@H](CO)[C@H](O)[C@H]1O [Streptomycin sulfate],scaled lipid accumulation score,,inactive: ≤ 0
same,scaled lipid accumulation score,library stock concentration: 2.9 mM,inactive: ≤ 0
same,scaled lipid accumulation score,[1],inactive: 0.014
O=C(C=Cc1ccccc1)NC(NC(=S)Nc1ccc(Cl)cc1)C(Cl)(Cl)Cl (stereo not drawn),scaled lipid accumulation score,[4],inactive: ≤ -0.001
same,scaled lipid accumulation score,[5],inactive: ≤ -0.001
same,scaled lipid accumulation score,[6],inactive: ≤ -0.001
same,scaled lipid accumulation score,[2],inactive: 0.163
same,scaled lipid accumulation score,[1],inactive: 0.17 and inactive: 0.437 and inactive: 0.246
Cc1cccc(C(=O)O)c1O,scaled lipid accumulation score,[1],inactive: ≤ 0
Cc1cc(C=C2C(=O)C=CC2=O)cc(C)c1O,scaled lipid accumulation score,[1],active: 0.924
O=c1cc(-c2cccc3c2Sc2ccccc2S3)oc(N2CCOCC2)c1,scaled lipid accumulation score,[4],inactive: ≤ 0
same,scaled lipid accumulation score,[5],inactive: ≤ 0 and inactive: ≤ -0.005
same,scaled lipid accumulation score,[6],inactive: ≤ 0 and inactive: ≤ -0.005
same,scaled lipid accumulation score,[2],inactive: ≤ 0
same,scaled lipid accumulation score,[1],inactive: ≤ 0 and inactive: ≤ -0.001 and inactive: ≤ -0.005
CCCCC[C@H](O)/C=C/[C@H]1[C@H](O)CC(=O)[C@H]1C/C=C\CCCC(=O)OC(C)C [8-iso Prostaglandin E2 isopropyl ester],scaled lipid accumulation score,[3],inactive: ≤ 0
Oc1ccc([C@H]2COc3cc(O)ccc3C2)cc1 [(?)-Equol],scaled lipid accumulation score,[3],inactive: ≤ 0
Oc1ccc([C@H]2COc3cc(O)ccc3C2)cc1 [Equol],scaled lipid accumulation score,[2],inactive: 0.004
same,scaled lipid accumulation score,[1],inactive: 0.016
Fc1ccc(C(c2ccc(F)cc2)N2CCN(C/C=C/c3ccccc3)CC2)cc1 [Flunarizine-2HCl],scaled lipid accumulation score,library stock concentration: 4.9 mM,inactive: 0.188
Fc1ccc(C(c2ccc(F)cc2)N2CCN(C/C=C/c3ccccc3)CC2)cc1 [Flunarizine 2HCl],scaled lipid accumulation score,[2],inactive: 0.164
same,scaled lipid accumulation score,[1],inactive: 0.348
Fc1ccc(C(c2ccc(F)cc2)N2CCN(C/C=C/c3ccccc3)CC2)cc1 [Flunarizine hydrochloride],scaled lipid accumulation score,[1],inactive: 0.082
Fc1ccc(C(c2ccc(F)cc2)N2CCN(C/C=C/c3ccccc3)CC2)cc1 [Flunarizine dihydrochloride],scaled lipid accumulation score,,inactive: ≤ 0
same,scaled lipid accumulation score,[1],inactive: 0.534 and inactive: 0.325
CN1CCc2c(c3ccccc3n2Cc2ccccc2)C1 [Mebhydrolin naphthalenesulfonate],scaled lipid accumulation score,[1],inactive: ≤ 0
COc1cc2ncnc(Nc3ccc(F)c(Cl)c3)c2cc1OCCCN1CCOCC1 [Iressa],scaled lipid accumulation score,[1],active: 0.9
Cc1ccc(Nc2c(F)cccc2Cl)c(CC(=O)O)c1,scaled lipid accumulation score,[1],inactive: ≤ 0
Cc1ccc(Nc2c(F)cccc2Cl)c(CC(=O)O)c1 [Lumiracoxib],scaled lipid accumulation score,[2],inactive: ≤ 0
same,scaled lipid accumulation score,[1],inactive: 0.025
